Screen size: about 340,000 compounds; about 12,000 (3.5%) were called active. The inconclusive results got no clear call from the source; some entries with a clear call stand among them for comparison. Calls come from the whole dose curve; as a rule, active = well fitted inhibition curve with a large enough effect; inconclusive = small, poorly fitted or top-dose-only effect, or another doubt; inactive = no such curve, though single readings can be large or run the other way. No potency is given beside an inconclusive call; the fits are too rough.
Assay: qHTS Assay for Inhibitors of Hepatitis C Virus (HCV)
Details: Huh7.5.1 HCVcc-Cre (HCVcc is cell-culture hepatitis C virus) infection, luciferase reporter, 44 h; activity change, negative = inhibition: at 41.8 µM (top of the series) unless noted
Outline: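 Reporter virus HCVcc-Cre (~0.5 moi) infects cells exposed to compound; seeding density 1,000 cells/well with 4 h settling beforehand. Luminescence, 15 sec read, taken 44 h post-infection following a 15 min RT substrate incubation.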
% is set by controls: 0 for no effect and ±100 for the full control effect; potency is the fitted concentration of half-maximal effect; tags give direction and shape of the fitted curve.

Structure (SMILES) | Potency | activity change, negative = inhibition
O=C(NC1CCCC1)C(c1cccs1)N(C(=O)c1ccco1)c1ccc2c(c1)OCCO2 (configuration not stated) | inconclusive [inhibitor, partial curve] | –
CC(=O)Nc1ccc(/C(C)=N/NC(=O)c2ccccc2Cl)cc1 | – | inactive: 1.08%
Cc1ccc(-c2nsc(SCC(=O)Nc3ccc4c(c3)OCO4)n2)cc1 | – | inactive: -15.2%
CCOc1cc(CNC(C)(C)C)ccc1OCC(=O)Nc1cccc(C(F)(F)F)c1 | inconclusive [inhibitor, full curve] | –
COc1cccc(-c2c(-c3cc(OC)cc(OC)c3)n(C)c3ccc(-c4ccc(OC)nc4)cc23)c1 | – | inactive: -1.88%
Cn1c(N)c(-c2nc3cccnc3n2C)sc1=S | inconclusive [inhibitor, single point] | –
CCOc1ccc(Cn2c(=O)sc3ccccc32)cc1OC | active: 10 µM | –
CCOC(=O)c1cc(C(C)=O)c(=O)[nH]c1C | – | inactive: -3.55%
COc1cnc(SC)nc1Nc1ccc(C#N)cc1 | active: 22.4 µM | –
COc1ccccc1NC(=O)NC(=O)N(C(C)C)S(C)(=O)=O | inconclusive [inhibitor, single point] | –
CCOC(=O)C1CCCN(C(=O)c2ccc(Cn3c(=S)[nH]c4cc(C(=O)OC)ccc4c3=O)cc2)C1 (configuration not stated) | inconclusive [inhibitor, partial curve, poor fit] | –
Cc1cccc(C(=O)Nc2ccccc2NC(=O)c2cccc(C)c2)c1 | inconclusive [inhibitor, single point] | –
COc1ccc2c(c1)/C(=N/OC(=O)c1cccs1)CCC2 | – | inactive: -13.2%
CC1CCCc2sc3nc(NCc4ccco4)n4ncnc4c3c21 (configuration not stated) | inconclusive [inhibitor, single point] | –
C=CCn1c(NCCc2ccccc2)nc2c1c(=O)n(C)c(=O)n2C | inconclusive [inhibitor, partial curve] | –
c1ccc2c(c1)CCN(c1nc3ccccc3n3cnnc13)C2 | inconclusive [inhibitor, partial curve] | –
CCOc1ccc2oc(C(=O)N(CC)CC(=O)Nc3c(F)cccc3F)c(C)c2c1 | inconclusive [inhibitor, partial curve] | –
Cc1ccn2c(C(=O)c3ccc(Cl)cc3)cnc2c1 | inconclusive [inhibitor, single point] | –
Cc1ccc(/C(N)=N/OC(=O)c2ccc(F)cc2)cc1 | inconclusive [inhibitor, single point] | –
CC1=NN(c2nc(-c3ccc(C)cc3)cs2)C(=O)C1N=Nc1ccc2ccccc2c1 (configuration not stated) | – | inactive: 15.7%
COc1cc(CN2CC(=O)N(c3ccc(C)c(C)c3)C2=S)cc(OC)c1OC | inconclusive [inhibitor, single point] | –
CCc1ccc(/C=N/Nc2ncnc3nc[nH]c23)cc1 | – | inactive: 10%
COc1cc2c(cc1NC(=O)CN1CCN(S(=O)(=O)c3ccc(F)cc3)CC1)oc1ccccc12 | inconclusive [inhibitor, single point] | –
COCCCNCCCCOc1ccc(Br)cc1Cl | active: 10 µM | –

Structure (SMILES) | Potency | activity change, negative = inhibition
Cc1ccc(C(=O)NC(=S)Nc2ccccc2C)cc1 | inconclusive [inhibitor, single point] | –
CC(C)Nc1nc(NC(C)C)nc(N(C)N)n1 | active: 5.62 µM | –
COc1ccc(CN(C)C(=O)c2ccc(Cl)c(S(=O)(=O)NCc3cccnc3)c2)cc1F | inconclusive [inhibitor, full curve, poor fit] | –
Cc1cc(C)c2cc(C(=O)Nc3ccc(C)c(F)c3)[nH]c2c1 | inconclusive [inhibitor, partial curve] | –
COC(=O)c1ccc(OCC(O)CNCC(c2ccc(OC)cc2)N(C)C)c(OC)c1 (configuration not stated) | inconclusive [inhibitor, partial curve] | –
CCc1nnc(NC(=O)c2ccc3nc(CC)c(CC)nc3c2)s1 | inconclusive [inhibitor, full curve] | –
Cc1ccc2nc3c(c(N)c2c1)CCN3c1ccccc1 | inconclusive [inhibitor, single point] | –
O=C(Nc1ccc2oc(=O)ccc2c1)c1ccc(-c2ccccc2[N+](=O)[O-])o1 | inconclusive [inhibitor, partial curve] | –
COc1ccc(N2CCN(C(=O)c3ccc(CNS(=O)(=O)c4ccc(C)cc4)cc3)CC2)cc1 | active: 12.6 µM | –
Oc1[nH]c2ccccc2c1C=Nc1ccc2c(c1)OCCO2 | inconclusive [inhibitor, partial curve] | –
COc1ccc(C(=O)NCC(c2ccco2)N2CCc3ccccc32)c(OC)c1 (configuration not stated) | inconclusive [inhibitor, partial curve] | –
CC(C)Cn1c(-c2ccccc2F)n[nH]c1=S | inconclusive [inhibitor, partial curve, poor fit] | –
CC(=O)c1cccc(NC(=O)C(C)OC(=O)C2=NNC(=O)CC2)c1 (configuration not stated) | – | inactive: -4.33%
CCCn1c(C)cc(/C=C(\C#N)C(=O)OCC(=O)N(CC)c2c(N)n(Cc3ccccc3)c(=O)[nH]c2=O)c1C | inconclusive [inhibitor, partial curve] | –
Cc1cc(C)cc(N(CCC#N)C(=O)COC(=O)c2ccc(OCc3c(C)noc3C)cc2)c1 | inconclusive [inhibitor, partial curve] | –
Cc1ccc(N=Nc2c(N)[nH]n3c(=O)cc(C)nc23)cc1 | inconclusive [inhibitor, partial curve] | –
Cc1nn(-c2ccccc2)c(N)c1N=Nc1ccccc1 | inconclusive [inhibitor, partial curve] | –
COc1cccc2cc(-c3csc(CCn4nc(C)cc4C)n3)c(=O)oc12 | inconclusive [inhibitor, single point] | –
Cc1nc(-c2ccccc2)sc1C(=O)Nc1ccc(S(N)(=O)=O)cc1 | inconclusive [inhibitor, partial curve] | –
Cc1cccnc1NC(=O)Nc1ccc(F)cc1 | – | inactive: 1.72%
COc1ccc(N(CC(=O)NC2CCS(=O)(=O)C2)S(=O)(=O)c2cc(C)ccc2C)cc1 (configuration not stated) | – | inactive: 15.5%
Cn1ncc(Cl)c1C(=O)NCC1CCCO1 (configuration not stated) | – | inactive: 6.23%
CCCCOC(=O)c1ccc(NC(=O)c2c(OC)cccc2OC)cc1 | inconclusive [inhibitor, full curve] | –
O=C(Nc1ccc(Oc2ccc(NC(=O)Nc3ccc([N+](=O)[O-])cc3)cc2)cc1)Nc1ccc([N+](=O)[O-])cc1 | active: 5.62 µM | –

Structure (SMILES) | Potency | activity change, negative = inhibition
O=C(CS(=O)(=O)c1ccccc1)c1cc2ccccc2oc1=O | – | inactive: -14.5%
Oc1c(C=C2N=c3ccccc3=N2)sc(=S)n1-c1ccc(F)cc1 | inconclusive [inhibitor, single point] | –
Cc1ccccc1CC(=O)N(CCN(C)C)CC1CCCN(Cc2ccccc2F)C1 (configuration not stated) | inconclusive [inhibitor, partial curve, poor fit] | –
Oc1ccc(Br)cc1-c1cc(-c2ccc(Cl)cc2)n[nH]1 | active: 10 µM | –
COc1ccc([C@@H]2COc3c(ccc4c3C=CC(C)(C)O4)C2)c(OC)c1 | – | inactive: 41.2%
CCOC(=O)c1c(NC(=O)Cn2nc([N+](=O)[O-])c(Br)c2C)sc2c1CCC(C)C2 (configuration not stated) | inconclusive [inhibitor, partial curve, poor fit] | –
CC(NCC(=O)Nc1cc(S(=O)(=O)N2CCOCC2)ccc1N1CCOCC1)c1ccco1 (configuration not stated) | – | inactive: -0.897%
COc1ccc(C2c3[nH]c4ccccc4c3CCN2CCCn2cccn2)c(C)c1C (configuration not stated) | inconclusive [inhibitor, single point] | –
CCn1c(C)nc2cc(C(=O)N/N=C/c3cccc(OC)c3O)ccc21 | inconclusive [inhibitor, single point] | –
COC(=O)CSc1nc(NC(C)(C)C)nc(N(C)C)n1 | inconclusive [inhibitor, single point] | –
Cc1ccc(S(=O)(=O)N(C)CCCC(=O)Nc2ccc(F)cc2)cc1 | inconclusive [inhibitor, single point] | –
Cc1cccc(NS(=O)(=O)c2ccc(C3CCCCC3)cc2)n1 | – | inactive: 10.8%
CC(C)(C)NC(=O)C(c1ccco1)N(Cc1ccc2c(c1)OCO2)C(=O)c1snc(C(N)=O)c1N (configuration not stated) | – | inactive: -10.1%
CC(=O)Nc1ccc(C(=O)OCC(=O)c2cccc([N+](=O)[O-])c2)cc1 | – | inactive: -1.33%
CC(=O)Oc1oc(-c2ccccc2)nc1C=Nc1ccccc1 | – | inactive: 9.4%
CCC(=O)N1CCN(c2ccc(NC(=O)c3cccs3)cc2)CC1 | – | inactive: 7.3%
Cc1cc(C(=O)NC2=NCCS2)cs1 | – | inactive: 20.3%
Cc1cccc(NC(=O)c2ccc(Cn3cc(C(F)(F)F)ccc3=O)cc2)c1 | inconclusive [inhibitor, single point] | –
Nc1ncnc2c1ncn2[C@@H]1O[C@H](COP(=O)(O)OP(=O)(O)OP(=O)(O)O)[C@@H](O)[C@H]1O | active: 0.562 µM | –
CC(=O)Oc1ccc(C(=O)Cc2ccc3ccccc3n2)c(O)c1C | inconclusive [inhibitor, single point] | –
C[C@]12CCC3C(CC[C@H]4CCCC[C@]34C)C1CC[C@@]2(O)CNCCO (some centres not stated) | active: 10 µM | –
COc1ccc(NC(=S)NNC(=O)COc2ccc(Cl)cc2Cl)cc1 | inconclusive [inhibitor, single point] | –
CSc1nc(C)c2c(n1)N(c1ccc(O)cc1)CC2 | inconclusive [inhibitor, single point] | –
CCC(CC)C1=NN2C(=N)/C(=C/c3ccc(OC(=O)c4ccco4)cc3)C(=O)N=C2S1 | – | inactive: 10.8%
